In PubChem BioAssay (NCI) one finds growth data, which are given here for one molecule.

The structures appear in SMILES notation. Where a structure was tested more than once in an assay, its records may differ in their call.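 The endpoint reported here, percent growth, reads 100 for growth as untreated, 0 for no net growth and -100 for all cells dead.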 Not every entry of the source has a single result; some have several. They are shown here; other results are not. The calls were made as follows: active = growth percent below 10; inactive = the rest. An entry can have further records. These are repeated runs of one drug, at the concentration stated with the values; one value stands for one run. Signs of the kind (2×) say how often a value occurs here.

The assay concerns NCI-H522 lung. Put plainly: NCI-60 one-dose screen, 48 h (100 = growth as untreated, 0 = no growth, -100 = all killed).

`COc1cccc2c1C(=O)c1c(O)c3c(c(O)c1C2=O)C[C@@](O)(C(=O)CO)C[C@@H]3OC1CC(N)C(O)C(C)O1` (stereo not given in full): the growth entry (0.25 µM, runs of 2009) was “inactive: 22.3, 18.3, 41.2, 54.4, 70.6, 49.7, 65.1, 23.6, 30, 30.8, 71.2, 16.8, 20.7, 10.9 (2×), 12.2, 24.2, 25.1, 35, 11.5, 26.1, 11.9, 24.7 (2×), 47.4, 10.2, 15.3, 25.6, 14.7, 33.2, 39.1, 13.8, 13.9, 13.3, 17.4 (2×), 16.2% and active: -26.8, -12.1, 7.72 (2×), 5.79, -7.04, 8.1, -27, 1.11, -3.26, 6.34, -19.9, 7.53, 4.44, -5.92, 9.33, 1.25, -15.5, -3.43, -14, -13.9, -10.9, -28.2, -13.1, -33.1, -20.9, -15.7, -33.6, 6.53, 0.844, -1.45, 8.28%”; the growth entry (0.25 µM, runs of 2010) is “inactive: 29.7, 21.9, 45, 15.5, 22, 10.6, 22.7, 27.8, 15.3, 14.6, 16.4, 12.2, 12.9, 11.5, 29.4, 19.2, 19, 25.6, 38.2, 16.1, 13.3, 24.5, 22.5% and active: -5.11, 1.51, 0.0934, 1.72, -3.21, -3.39, 2.55, -4.98, -30.9, -26.8, -9.72, -8.95, 6.68, -6.88, -2.53, 6.93, 3.92, 1.32, 8.45, -8.96, 5.5, -5.31%”; the growth result (0.25 µM, runs of 2011) is “inactive: 25.7, 14.6, 17.5, 22, 23.1, 34.4, 22.3, 45.6, 38.7, 42.3, 38, 37.3, 17.2, 22.9, 14.7, 19.2, 30.3, 11.8 (2×), 29, 28.5, 15, 33.9, 19.1, 17.3, 23, 20.6, 20.5, 27, 18.8, 32, 11.6, 13.4, 21.7% and active: 4.19, 7.83, 1.91, -5.93, -4.11, 8.34, -45.2, 6.43, 8.15, 3.24, -10.3, 9.38, 8.96, -1.24, -4.63, 7.69, 4.5, 4.38, 5.58, -1.72%”; the growth entry (0.25 µM, runs of 2012) is “inactive: 27.7, 22.9, 12.2, 22.3, 27.8, 29.7, 14.1, 15.8, 16.6, 15.3, 34.1, 35.6, 11.8, 35.5, 27.2, 16.3, 29 (2×), 30.3, 19.3, 15.2, 51.8, 37.9, 41.2, 46.5, 16, 28.5, 63.9, 42.9, 38, 18.8, 27.9, 10, 21.7, 18.3, 20.9, 31.8, 23.2, 10.7, 21.2, 16.7, 29.2, 61.6% and active: 4.37, 5.12, 1.13, 4.71, 2.72, 8.49, 0.406, 3.04, -3.83, 9.38, -6.39, -15.1, -2.69, 5.84, 4.63, 1.4, 5.18, 1.76, 2.31, 0.368, 9.18, 6.17, 8.64, -21.6%”; the growth result (0.25 µM, runs of 2013) is “active: 4.75, 1.67, 5.68, 7.97, 2.53, 3.3, 6.31% and inactive: 57.6, 43.6, 22.7, 28.1, 18.2, 35.9, 16.8, 37.4, 16.4 (3×), 26.2, 25.8 (2×), 10.4, 22.4, 38.2, 22.8, 69, 40.8, 44.7 (2×), 71.3, 34.1, 28.5, 38.1, 33.2 (2×), 74.9, 71.9, 38.4, 46.1, 21.1, 22.9, 25.7, 21.2, 29.4, 17, 26.5, 20, 24.2, 36.1, 15.3, 57.2, 51.2, 49.8, 50.8, 39.4, 29.8, 30.9, 21, 13.3, 16.7 (2×), 19.2, 20.5, 23.5, 21.8, 26, 19%”; the growth result (0.25 µM, runs of 2014) was “inactive: 26.1, 21.3, 19.8, 14.8, 26.8, 11.2, 11.3, 19.7, 18 (2×), 26.5, 19.2, 45.8, 32.2, 39.7 (2×), 49, 28.7, 35.9 (2×), 33.4, 32.7, 15.4, 22.5, 24.2, 14.6, 13.6 (2×), 13 (2×), 11.4, 19.6, 40, 38.7, 21.7, 23.7 (2×), 34.9, 28.1, 32.3, 29.4, 23.8, 21.5, 26.7, 14.4, 17.5, 23.2, 29.1, 23.9, 28, 12, 13.8, 16 (2×), 16.7, 16.6, 24.4, 17.6, 20.1, 21.4, 17.7, 18.2, 20.3, 10.5% and active: 8.55, 9.5, 9.61, 8.94, 3.47, 3.79, 1.21, 2.2, -0.758, 8.09, 5.57, 9.57, 8.68, 8.81, 4.95%”. Moreover, the growth entry runs as follows: (0.25 µM, runs of 2015) “inactive: 22.1, 16.5, 19.5, 24.2, 18.2, 34, 38.8, 35.3, 38.5, 38.4, 37.1, 20.7 (2×), 13.6 (2×), 16, 30.7, 30, 21.5 (2×), 32.6, 23.7, 28.2 (2×), 33.6, 35.1, 37.7, 26.2, 14, 15.7, 17.7, 15.5, 13, 17.5, 13.8, 15.8, 14.1, 22.8, 21.9, 11.1, 29.1, 25.4, 23.5, 31.1, 13.5, 30.8, 24.4, 24.9, 21.1, 27.4, 27.9, 12.9, 19.3, 27.7% and active: 1.61, 8.88, 3.85, 0.749, 7.06, 1.32, 7.12, 5.31, 7.51, 2.81, 5.4, 6.82, 6.44, 5.74, -11.9, 9.31, 8.82, -1.67, 1.3, 5.44, 7.54, 2.48, -11.2, 5.39, 2.99, 7.01, 8.33, 2.19, 7.19, 1.97, 5.92, -2.75%”; (0.25 µM, runs of 2016) “inactive: 25.5, 23.2, 27.9, 34.7, 16.8, 19.5, 20.7, 14.2, 15.3, 28.1, 22.6, 14.4, 15.4, 15.7, 27.1, 22.7, 22.5 (2×), 37.2, 37.1, 25.3, 26.7, 31.3, 31.7, 16.1, 14.7, 16, 13.5, 18.4, 15.1, 21, 17.9, 13.8, 20.6, 24.8 (2×), 26.5, 32.1, 22.3, 41.5, 19.7, 43.2, 41, 42.6, 34.1, 29.2, 35.4, 32.4, 40.5, 44.8, 30.3, 20.3, 23 (2×), 17.2, 24.6, 29.7, 19.9, 15, 13.9, 25.6 (2×), 31.9, 38.2, 28.2, 31, 34.6, 36.1, 26% and active: 9.16, 1.21, -5.05, -9.1, -1.93, 1.62, 0.327, 4.52, -8.83, 8.28, 9.83%”; (0.25 µM, runs of 2017) “inactive: 32.1, 30.7, 34.6, 17.2, 12.4, 17.6 (2×), 22 (2×), 13.8, 13.3, 13.9 (2×), 16.1, 15, 11.8, 11.2, 11.7, 24.3, 25.1, 17.3, 20.3, 13.1, 18.8, 33, 24.4, 26.8, 33.3, 27.3, 20.4, 25.3 (2×), 25.5, 27.4, 10.4, 15.3, 19.8, 14.6, 11.5, 18.1 (2×), 23.3, 27.7, 32.2, 10.5 (3×), 18.6, 23.5 (2×), 23.1, 25.6, 25.8 (2×), 31.1, 30.4, 19.7, 11.3, 10.1, 15.1, 10.8, 13.2, 10.6, 21, 14.2, 19.4, 24.9, 21.5% and active: 8.85, 9.93, 4.06, 9.24 (2×), 7.09, 9.8, 9.84, 4.89, 6.52, 4.18, 6.84, 8.91%”; (0.25 µM, runs of 2018) “inactive: 20.5, 18.9, 14.7, 10.8, 27.9, 27.6, 10.6 (2×), 12, 10.2, 22.4 (2×), 15.6, 22.8, 27.8, 28, 22.2, 15.5, 14, 14.1, 37.9, 26.1, 32.1, 23.4, 23.7, 18.3, 13.2 (2×), 19.9, 20, 17.6, 16.1, 19.6, 13.5, 15, 17.3, 20.8, 11.4, 11, 25.5% and active: 9.26, 8.01, 8.06, 8.58, 9.51, 5.72, -9.39, 6.03, 4.23, 8.02, 2.63, 6.15%”; (0.25 µM, runs of 2019) “inactive: 27.9, 17.5, 28.1, 17.3 (2×), 11.7 (2×), 14.8, 22.9, 16.8 (2×), 19.4 (2×), 19.8, 29.2, 24.4, 21.8, 17.4 (2×), 26.1, 24.6, 18.4, 25.8 (2×), 11.3, 10.5, 23.8, 26.8, 31.9, 27.1, 27.7, 19, 27, 23.2, 31.8, 30.7, 23, 15.1, 18.3, 12.4, 24.3, 38.1, 13.3, 24.7% and active: 1.27, 4.01, 9.25, 5.36, 6.81%”; (0.25 µM, runs of 2020) “inactive: 26.6, 32, 37.2, 35.8, 30.3, 11.5, 11.1, 21.4, 28.5, 24.7, 21.9, 15.2, 11.7, 20.3, 17.7, 30.7, 23.6, 34.7, 50.2, 33.3, 35.2, 37.9, 35.6, 44.2, 45.9, 26.4%”. The growth entry reads like this: (0.25 µM, runs of 2021) “inactive: 32.4, 40.8, 50.5, 38.3 (3×), 24.6 (2×), 31.5, 32, 13.1, 19.6, 16.1, 27, 12.9, 23.1, 23.5 (2×), 38 (2×), 28.1, 42.2, 29.9, 31.7, 31.2, 19.9, 51.3, 10.1, 13.9, 24.9, 21, 12.6, 29.2, 27.8, 46, 50.3, 17.2, 19.4, 10.5% and active: 5.91, 9.04, 9.59, 8.8, -10.4, -2.25, -2.05, -0.977, -2.57, 1.6%”; (0.25 µM, runs of 2022) “active: -50.6, -40.5, -46.8, 0.965, -6.22, 6.02, 6.33, -8.91, 2.92, -3.09% and inactive: 29.8, 14.4 (2×), 13.2, 27.7, 16.2, 13.1, 13.3, 45.1, 65.8, 70.1, 46, 83.9, 38.1, 37.4, 34.7, 26.1%”; (25 µM, runs of 1991) “active: -82.9, -68.1, -78.2, -87.5, -90, -89.4, -75.4, -92.9, -93.8, -64, -80.1, -81.5, -88.9, -95, -98.8, -94.7, -87.9, -95.1, -74.6%”.
